From PMC4336329 (PLoS ONE, 2015) come the findings set out here.

Each structure is given as a SMILES string. Screen size: about 310,000 compounds; about 2,200 (0.71%) showed an effect of 50% or more. Effects have a minus sign here. The list shows a part of the results. Where a SMILES comes first, the peptide text is derived from it. [ ]: non-standard residue; d: D form. pGlu = O=C1CC[CH](C(=O)O)N1

Sequence of human ether-à-go-go-related gene (hERG) potassium channel (Q12809 whole entry, looked up): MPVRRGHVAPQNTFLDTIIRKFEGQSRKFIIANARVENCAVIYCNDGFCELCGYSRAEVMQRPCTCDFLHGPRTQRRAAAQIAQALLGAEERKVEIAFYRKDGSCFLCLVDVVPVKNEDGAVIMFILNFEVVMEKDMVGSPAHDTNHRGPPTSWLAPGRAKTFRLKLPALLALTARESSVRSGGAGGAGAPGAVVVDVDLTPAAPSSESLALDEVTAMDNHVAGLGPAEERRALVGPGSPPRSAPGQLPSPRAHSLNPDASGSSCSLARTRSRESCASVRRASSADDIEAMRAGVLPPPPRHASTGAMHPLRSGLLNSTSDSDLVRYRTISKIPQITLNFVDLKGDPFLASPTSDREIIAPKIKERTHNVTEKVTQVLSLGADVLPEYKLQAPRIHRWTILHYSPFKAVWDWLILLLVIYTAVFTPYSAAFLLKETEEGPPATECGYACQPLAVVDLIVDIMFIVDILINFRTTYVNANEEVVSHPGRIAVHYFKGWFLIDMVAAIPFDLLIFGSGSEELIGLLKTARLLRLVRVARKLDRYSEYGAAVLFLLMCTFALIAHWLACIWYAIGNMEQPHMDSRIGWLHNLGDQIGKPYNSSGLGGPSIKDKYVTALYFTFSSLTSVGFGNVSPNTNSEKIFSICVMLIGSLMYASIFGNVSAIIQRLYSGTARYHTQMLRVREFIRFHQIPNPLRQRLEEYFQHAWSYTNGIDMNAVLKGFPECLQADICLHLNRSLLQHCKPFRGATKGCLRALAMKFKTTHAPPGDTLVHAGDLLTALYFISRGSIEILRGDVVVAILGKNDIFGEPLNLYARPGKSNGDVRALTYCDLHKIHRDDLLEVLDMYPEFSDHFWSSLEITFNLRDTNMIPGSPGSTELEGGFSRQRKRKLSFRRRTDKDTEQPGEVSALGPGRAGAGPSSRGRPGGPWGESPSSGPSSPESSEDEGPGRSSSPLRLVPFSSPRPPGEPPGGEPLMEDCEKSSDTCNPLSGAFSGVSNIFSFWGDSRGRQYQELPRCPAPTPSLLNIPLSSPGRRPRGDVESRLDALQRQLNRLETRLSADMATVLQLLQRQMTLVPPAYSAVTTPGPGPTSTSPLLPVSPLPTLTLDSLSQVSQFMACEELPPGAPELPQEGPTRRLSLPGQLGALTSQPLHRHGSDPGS

The test addresses human ether-à-go-go-related gene (hERG) potassium channel (human, UniProt Q12809). Description: primary screen, population patch clamp on CHO cells stably expressing hERG.
Regarding `O=C(O)c1cc(N/N=C/c2c(O)ccc3ccccc23)ccc1Cl`, the “hERG current change (%, negative = inhibition) at 1uM” value was 12.4%. In the case of `COC(=O)[C@H](Cc1ccccc1)NC(=O)C1(OC(C)=O)CC(OC(C)=O)C(OC(C)=O)C(OC(C)=O)C1` (some centres unmarked), the “hERG current change (%, negative = inhibition) at 1uM” value is recorded as 18.5%.

`CC(C)c1nn(-c2cc(C(F)(F)F)ccn2)c(=O)o1`: the “hERG current change (%, negative = inhibition) at 1uM” value was found to be 16.5%. With `COc1ccc(NS(=O)(=O)c2ccc(/C=C/C(=O)O)cc2)cc1S(=O)(=O)N1CCOCC1`, the “hERG current change (%, negative = inhibition) at 1uM” value is on record as 10.7%. In the case of `Cc1ccccc1OCCSCc1nc2ccccc2[nH]1`, the “hERG current change (%, negative = inhibition) at 1uM” value is given as 3.23%. `Cc1c(C(=O)NCCN2C(=O)S/C(=C\c3cccs3)C2=O)cccc1[N+](=O)[O-]`: the “hERG current change (%, negative = inhibition) at 1uM” value was -1.11%. Regarding `Cn1cnc2c(N3CCCCC3)nccc21`, the “hERG current change (%, negative = inhibition) at 1uM” value is on record as 6.52%.

On to `Cc1ccc(NC(=O)Cc2noc3ccccc23)nc1`, for which the “hERG current change (%, negative = inhibition) at 1uM” value is -0.574%. Then `CC(C)N=C(NC#N)SCc1ccccc1`, with -5.91%; and `COc1cc(Cn2nnc3ccccc32)ccc1O`, with 11.4%. Then `CCCN1CCC(=O)N([C@H](COc2ccccc2)c2ccccc2)CC1`, with -76.5%; and `Cn1nc([N+](=O)[O-])c2c(-c3nc4ccccc4s3)c(N)n(C3CCCCC3)c2c1=O`, with 10.4%; and `CC(C)Oc1ccc(Cc2cnc(N)nc2N)cc1`, with 1.46%. Turning to `Cc1csc2nc(O)c(C(=O)NC3CCCCC3)c(=O)n12`, the “hERG current change (%, negative = inhibition) at 1uM” value is recorded as -0.665%. For `COc1ccc2nc(SC(C(=O)c3ccccc3)c3ccccc3)nc(C)c2c1` (centres unmarked), the “hERG current change (%, negative = inhibition) at 1uM” value was found to be 15.9%. For the compound `CC(C)c1ccccc1NC(=S)NCc1ccccc1F`, the “hERG current change (%, negative = inhibition) at 1uM” value is 12.8%. Then `COCCNC(=O)c1onc(CSc2ccc(C)c(C)c2)c1C(=O)O`, with -8.37%; and `O=C(Cc1ccccc1)Nc1ccccc1C(=O)N1CCN(c2ccccc2)CC1`, with 7.3%. With `CC(=O)N1CCc2c(sc(NC(=O)C3CCCCC3)c2C(N)=O)C1`, the “hERG current change (%, negative = inhibition) at 1uM” value stood at 1.91%.

On to `COc1ccc(OCCCCN2CCC(C)CC2)cc1.O=C(O)C(=O)O`, for which the “hERG current change (%, negative = inhibition) at 1uM” value is recorded as 0.418%. Then `CCCOc1ccc(N2CC(C(=O)Nc3ccc(N4CCOCC4)cc3)CC2=O)cc1` (centres unmarked), with 20.3%; and `Cc1cccc(C(=O)O)c1NC(=O)Cc1cccc2ccccc12`, with 10.6%.

For `Nc1nc2c([N+](=O)[O-])cccc2s1`, the “hERG current change (%, negative = inhibition) at 1uM” value was determined as 13.9%. For `Cn1c(=O)c(C(=O)NCCc2ccccc2)c(O)c2ccccc21` the value was 18.8%; for `COc1ccc(CN(C)CC(=O)Nc2ccccc2-c2ccccc2)c(OC)c1`, 20.2%.

For the compound `COc1ccc2nc(NC(=O)/C=C/c3ccc4c(c3)OCO4)sc2c1`, the “hERG current change (%, negative = inhibition) at 1uM” value amounted to 14%. For `O=c1[nH]cc(S(=O)(=O)N2CCN(c3cccc(C(F)(F)F)c3)CC2)c(=O)[nH]1` the value was 19%; for `CC(=C\c1ccccc1)/C=C1/SC(=O)N(CCCC(=O)Nc2ccc(C(=O)O)cc2)C1=O`, 9.44%.

`COC(=O)C1=C(c2ccc(OC)c(OC)c2)C[C@@H]2CC[C@H]1N2C(=O)NC(C)C`: the “hERG current change (%, negative = inhibition) at 1uM” value was determined as 14.3%. As for `CC(=O)C1=C(C)NC(SCc2cccc([N+](=O)[O-])c2)=C(C#N)C1c1ccco1` (centres unmarked), the “hERG current change (%, negative = inhibition) at 1uM” value is listed as 4.84%.

For `COc1ccc(C(=O)N/C(=C\c2ccc3c(c2)OCO3)C(=O)N2CCOCC2)cc1`, the “hERG current change (%, negative = inhibition) at 1uM” value was 27.1%. `O=C1CS(=O)CN1c1ccc(Oc2ccccc2)cc1` (centres unmarked): the “hERG current change (%, negative = inhibition) at 1uM” value is given as 0.253%. Then `O=C(Nn1c(-c2ccc(Br)cc2)nc2ccccc2c1=O)c1ccncc1`, with 12.4%; and `Cc1cccn2c(=O)nc(SCC(=O)NC3CCCCC3)nc12`, with 3.54%; and `CC1(C)Cc2c(sc(NC(=O)c3ccccc3)c2C(=O)O)CO1`, with 13.8%. With `Cn1nnc2cc(NC(=O)NCc3ccc4c(c3)OCO4)ccc21`, the “hERG current change (%, negative = inhibition) at 1uM” value is given as 8.61%. Turning to `COc1ccc(/C=N/NC(=O)c2ccc(Cl)cc2)cc1COC(C)=O`, the “hERG current change (%, negative = inhibition) at 1uM” value is on record as 7.95%. For `CCn1c(NC(C)=O)c(-c2ccccc2Cl)c(=O)c2ccccc21`, the “hERG current change (%, negative = inhibition) at 1uM” value is listed as 18.4%.

Take `Clc1ccc(CSc2nncn2-c2ccccn2)cc1`: the “hERG current change (%, negative = inhibition) at 1uM” value was -2.4%. `O=C(NCc1cccnc1)C1CC2c3ccccc3C1c1ccccc12` (centres unmarked): the “hERG current change (%, negative = inhibition) at 1uM” value came to 8.55%.

Turning to `COc1cc(C(=O)OCC2CC(c3ccccc3)=NO2)cc(OC)c1OC` (centres unmarked), the “hERG current change (%, negative = inhibition) at 1uM” value is reported as -7.63%. For the compound `O=C(Nc1cccc(Cl)c1)c1ccc(-n2cncn2)c([N+](=O)[O-])c1`, the “hERG current change (%, negative = inhibition) at 1uM” value is -4.82%. For the compound `CC(=O)c1c(C)nc(-c2ccc(Cl)cc2)nc1N`, the “hERG current change (%, negative = inhibition) at 1uM” value was determined as 3.59%. `O=C(COc1ccccc1F)Nc1ccccc1C(=O)NC1CC1`: the “hERG current change (%, negative = inhibition) at 1uM” value is given as -2.94%.

`CCOc1ccc(NC(=O)CCN2CCN(S(=O)(=O)c3ccc(Cl)cc3)CC2)cc1`: the “hERG current change (%, negative = inhibition) at 1uM” value is reported as 6.48%.

As to `CC(=O)N1N=C(c2ccco2)CC1c1cc2ccc(C)cc2nc1Cl` (centres unmarked), the “hERG current change (%, negative = inhibition) at 1uM” value was found to be 16.9%.

As for `COc1nc2ccccc2nc1CCC(=O)O`, the “hERG current change (%, negative = inhibition) at 1uM” value worked out at 17.3%.

With `CCN1C(=O)N(CC)c2cccc3cccc1c23`, the “hERG current change (%, negative = inhibition) at 1uM” value came to 10.4%.

Regarding `Cc1ccccc1-c1nc(-c2ccc(NC(=O)c3ccc(Br)o3)cc2)no1`, the “hERG current change (%, negative = inhibition) at 1uM” value was -1.7%. For `CCCCS(=O)(=O)N1CCCC(C(=O)Oc2ccccc2OC)C1` (centres unmarked) the value was 14.5%. For `COc1ccc(NC(=O)C2C3C=CC4(O3)C2C(=O)N(CCN2CCCCC2C)C4C(=O)NC2CCCCC2)cc1` (centres unmarked) the value was 8.36%; for `O=C1NC(=O)N(Cc2ccccc2)C1=O`, 17.9%; for `Cc1cc2oc(C(=O)NCCc3ccc(S(N)(=O)=O)cc3)cc(=O)c2cc1C`, 15.2%. For `COc1ccccc1CNC(=O)CN1CCC(NC(=O)c2ccccc2F)CC1.Cl` the value was 1.06%. As for `COc1ccc(NC(=O)CN2C(=O)NC(C)(C3CC3)C2=O)cc1S(=O)(=O)N1CCOCC1` (centres unmarked), the “hERG current change (%, negative = inhibition) at 1uM” value is recorded as 7.09%. On to `Cc1ccc(-c2cc(C(=O)N/N=C/c3ccc([N+](=O)[O-])o3)c3ccccc3n2)o1`, for which the “hERG current change (%, negative = inhibition) at 1uM” value amounted to 10.8%. On to `O=C1Nc2cc(Br)ccc2C1(O)c1ccccc1O` (centres unmarked), for which the “hERG current change (%, negative = inhibition) at 1uM” value is recorded as 17.7%. `C[C@H](NS(=O)(=O)c1ccc2c(c1)OCCCO2)C(=O)N1CCN(Cc2ccc(C#N)cc2)CC1`: the “hERG current change (%, negative = inhibition) at 1uM” value is -24.9%. Regarding `O=C(Cc1cccs1)Nc1ccccc1-c1nc2ccccc2[nH]1`, the “hERG current change (%, negative = inhibition) at 1uM” value turned out to be 8.69%. For `Cc1ccc2c(c1)C1CN(C)CCC1N2S(=O)(=O)c1ccc(C(C)C)cc1` (centres unmarked) the value was -29.4%.

Turning to `CCOC(=O)c1cccc(NC(=O)c2ccc(F)cc2F)c1`, the “hERG current change (%, negative = inhibition) at 1uM” value is given as 5.69%. For `N#CCC(=O)N/N=C/c1cn(Cc2cccc3ccccc23)c2ccccc12`, the “hERG current change (%, negative = inhibition) at 1uM” value is 12.2%.

As for `Oc1c(C(c2ccccn2)N2CCCCC2)cc(Cl)c2cccnc12` (centres unmarked), the “hERG current change (%, negative = inhibition) at 1uM” value stood at 9.14%. For the compound `O=C(Nc1ccccn1)c1ccc2nc(-c3ccccc3)c(-c3ccccc3)nc2c1`, the “hERG current change (%, negative = inhibition) at 1uM” value is 9.71%.

Turning to `CCN(CC(=O)Nc1c(F)cccc1F)C(=O)C1CCN(S(=O)(=O)c2ccc(C)c(C)c2)CC1`, the “hERG current change (%, negative = inhibition) at 1uM” value is 12.7%.

For `C=CCOc1ccc(/C=C/C(=O)Nc2ccc(C(=O)NC)cc2)cc1`, the “hERG current change (%, negative = inhibition) at 1uM” value is reported as 5.42%.

As to `Cc1nc(-c2ccc(-c3ccon3)s2)no1`, the “hERG current change (%, negative = inhibition) at 1uM” value came out at 12.9%. Take `O=C(Oc1ccc(Br)cc1C(=S)N1CCCCC1)c1cc([N+](=O)[O-])cc([N+](=O)[O-])c1`: the “hERG current change (%, negative = inhibition) at 1uM” value worked out at 16.1%.

For `CCC(C)C(NC(=O)C(CC(C)C)NC(=O)C(CO)NC(=O)C1CCC(=O)N1)C(=O)OC` (centres unmarked) ([pGlu]SLI-OMe; configuration not given here), the “hERG current change (%, negative = inhibition) at 1uM” value was 9.98%.

Consider `COc1ccc(CC(C)NS(=O)(=O)c2ccc3c(c2)CCN3S(C)(=O)=O)cc1OC` (centres unmarked), for which the “hERG current change (%, negative = inhibition) at 1uM” value is recorded as -28.7%. On to `Cc1ccccc1Cn1c2ccccc2c2cnn(CC(=O)NCCCN3CCN(C)CC3)c(=O)c21`, for which the “hERG current change (%, negative = inhibition) at 1uM” value is given as 20.2%. On to `C=CCn1c(C)cc(C(=O)COC(=O)CNC(=O)c2ccccc2)c1C`, for which the “hERG current change (%, negative = inhibition) at 1uM” value was 14.2%.

For the compound `CSCC[C@H](NC(=O)OC(C)(C)C)C(=O)N/N=C/c1cccc2nccnc12`, the “hERG current change (%, negative = inhibition) at 1uM” value worked out at 14.7%. With `Cn1ncc(Br)c1C(=O)N/N=C/c1ccc(OS(=O)(=O)c2ccccc2)cc1`, the “hERG current change (%, negative = inhibition) at 1uM” value was found to be 0.366%. As for `Cn1c(=O)c2c(nc(N3CCCCCC3)n2CC(=O)c2ccc(Br)cc2)n(C)c1=O`, the “hERG current change (%, negative = inhibition) at 1uM” value is on record as 10.1%. As to `CC(/C=C/c1ccco1)=N\NC(=O)CNc1ccc2ccccc2c1`, the “hERG current change (%, negative = inhibition) at 1uM” value is recorded as 13%. As for `CCc1ccc(N2CC(C(=O)N/N=C/c3cc([N+](=O)[O-])ccc3O)CC2=O)cc1` (centres unmarked), the “hERG current change (%, negative = inhibition) at 1uM” value is listed as 13.8%. On to `O=S(=O)(Nc1cccc2ccccc12)c1ccccc1F`, for which the “hERG current change (%, negative = inhibition) at 1uM” value was found to be 8%. `COc1cc(NC(=O)C2CC2)c(OC)cc1NC(=O)c1ccco1`: the “hERG current change (%, negative = inhibition) at 1uM” value is on record as 17.2%. Regarding `CN1C(C(=O)NCc2ccco2)=CC(c2ccc(F)cc2)=NS1(=O)=O`, the “hERG current change (%, negative = inhibition) at 1uM” value is on record as -7.32%.

On to `c1ccc(-c2cn3c(n2)SCC3)cc1`, for which the “hERG current change (%, negative = inhibition) at 1uM” value came to 4.72%. As to `COc1ccc(Nc2nc(N3CCN(S(C)(=O)=O)CC3)nc3ccccc23)c(OC)c1`, the “hERG current change (%, negative = inhibition) at 1uM” value is reported as 8.09%.

As to `COc1ccc(C(=O)OCC(=O)N2CCCCC2)cc1[N+](=O)[O-]`, the “hERG current change (%, negative = inhibition) at 1uM” value is reported as 3.15%. Regarding `CC(NC(=O)c1ccco1)C(=O)N1CCN(c2ccccc2)CC1` (centres unmarked), the “hERG current change (%, negative = inhibition) at 1uM” value was 14.9%.

For `Fc1ccccc1N=C1NN=C(c2ccccc2)CS1`, the “hERG current change (%, negative = inhibition) at 1uM” value is on record as 5.63%. For `Cc1ccc(-n2c(C)cc(C(=O)CSc3n[nH]c(N)n3)c2C)cc1` the value was 8.67%.
